Drawing on the supplement of paper PMC8047034, this text covers log2 surviving fraction for nine molecules.

One assay has as its system OVCAR4. Briefly: log2 surviving fraction (library drug vs vehicle, or drug + carboplatin vs carboplatin alone; relative to plate median); ovarian cancer lines: OVCAR4 is platinum-sensitive and Ov4Carbo platinum-resistant; higher = more cell survival. To be noted: library drug concentration 10 µM, 7 days.
In a further assay the test system is Ov4Carbo. Described as above. Conditions: library drug concentration 10 µM, 7 days.

SMILES strings stand for the structures. Structures can show the parent of a compound that is named as a salt. The list shows a part of the results. Repeats are few or missing, and single values can be far off.

Regarding `Nc1ncnc2c1ncn2[C@@H]1O[C@H](COP(=O)(O)OP(=O)(O)OP(=O)(O)O)[C@@H](O)[C@H]1O` [ATP (Adenosine-Triphosphate)], the log2 surviving fraction in the assay with OVCAR4 (carboplatin co-treatment 0 µM) was 0.658; in the assay with OVCAR4 (carboplatin co-treatment 5 µM), 1.8; in the assay on Ov4Carbo (carboplatin co-treatment 0 µM) it was 1.24; in the assay with Ov4Carbo (carboplatin co-treatment 5 µM), 1.77.
Taken in the same sequence, the figures for `CC(=O)Oc1ccccc1C(=O)O` [Aspirin (Acetylsalicylic acid)] were 0.708, 0.856, -0.6 and 0.329.
For the molecule `O=C(Nc1cccc2c(=O)cc(-c3nnn[nH]3)oc12)c1ccc(OCCCCc2ccccc2)cc1` [Pranlukast], the log2 surviving fraction in the assay with OVCAR4 (carboplatin co-treatment 0 µM) was found to be 0.614; with OVCAR4 (carboplatin co-treatment 5 µM), 0.943; in the assay with Ov4Carbo (carboplatin co-treatment 0 µM) it was 0.163; in the assay with Ov4Carbo (carboplatin co-treatment 5 µM) it was 0.0365.
For `CN(C)[C@@H]1C(O)=C(C(N)=O)C(=O)[C@@]2(O)C(O)=C3C(=O)c4c(O)cccc4[C@@](C)(O)[C@H]3C[C@@H]12` [Tetracycline HCl], in that order: 0.15, 0.324, 0.945 and 0.622.
Regarding `COc1ccc(CN(CCN(C)C)c2ccccn2)cc1` [Pyrilamine Maleate], the log2 surviving fraction is -1.79 in the assay on OVCAR4 (carboplatin co-treatment 0 µM), -7.24 in the assay with OVCAR4 (carboplatin co-treatment 5 µM), 0.322 with Ov4Carbo (carboplatin co-treatment 0 µM) and 0.167 in the assay on Ov4Carbo (carboplatin co-treatment 5 µM).
Consider `O=C(O[C@H]1C[N+]2(CCCOc3ccccc3)CCC1CC2)C(O)(c1cccs1)c1cccs1` [Aclidinium Bromide], for which the log2 surviving fraction with OVCAR4 (carboplatin co-treatment 0 µM) worked out at 0.609; in the assay with OVCAR4 (carboplatin co-treatment 5 µM), 0.123; in the assay with Ov4Carbo (carboplatin co-treatment 0 µM) it was 0.106; with Ov4Carbo (carboplatin co-treatment 5 µM), 0.416.
Take `C[C@]12CC[C@@H]3c4ccc(O)cc4CC[C@H]3[C@@H]1CC[C@@H]2O` [Estradiol]: the log2 surviving fraction in the assay with OVCAR4 (carboplatin co-treatment 0 µM) was 0.306; with OVCAR4 (carboplatin co-treatment 5 µM), -0.0409; with Ov4Carbo (carboplatin co-treatment 0 µM), -0.333; in the assay with Ov4Carbo (carboplatin co-treatment 5 µM), -0.233.
`CCOc1nc2cccc(C(=O)OCc3oc(=O)oc3C)c2n1Cc1ccc(-c2ccccc2-c2noc(=O)[nH]2)cc1` [Azilsartan Medoxomil (TAK-491)]: the log2 surviving fraction with OVCAR4 (carboplatin co-treatment 0 µM) came out at 1.19; in the assay with OVCAR4 (carboplatin co-treatment 5 µM), 0.656; in the assay with Ov4Carbo (carboplatin co-treatment 0 µM), 0.624; in the assay on Ov4Carbo (carboplatin co-treatment 5 µM) it was 0.00879.
On to `CN[C@H]1CC[C@@H](c2ccc(Cl)c(Cl)c2)c2ccccc21` [Sertraline HCl], for which the log2 surviving fraction in the assay on OVCAR4 (carboplatin co-treatment 0 µM) was -9.01; with OVCAR4 (carboplatin co-treatment 5 µM), -7.7; in the assay with Ov4Carbo (carboplatin co-treatment 0 µM), -7.95; with Ov4Carbo (carboplatin co-treatment 5 µM), -7.61.
